Reference: PMC5739690
Results are given in words; binding and its absence hold for the method and conditions named. In cells and extracts the contact can be indirect. Some binding calls cover weakened binding; strength is not graded here. Tags and fused reporters may be left off the sequences shown.

Sequences of proteins named here, by UniProt entry; tags and fusion partners are left off.
UniProt P35568: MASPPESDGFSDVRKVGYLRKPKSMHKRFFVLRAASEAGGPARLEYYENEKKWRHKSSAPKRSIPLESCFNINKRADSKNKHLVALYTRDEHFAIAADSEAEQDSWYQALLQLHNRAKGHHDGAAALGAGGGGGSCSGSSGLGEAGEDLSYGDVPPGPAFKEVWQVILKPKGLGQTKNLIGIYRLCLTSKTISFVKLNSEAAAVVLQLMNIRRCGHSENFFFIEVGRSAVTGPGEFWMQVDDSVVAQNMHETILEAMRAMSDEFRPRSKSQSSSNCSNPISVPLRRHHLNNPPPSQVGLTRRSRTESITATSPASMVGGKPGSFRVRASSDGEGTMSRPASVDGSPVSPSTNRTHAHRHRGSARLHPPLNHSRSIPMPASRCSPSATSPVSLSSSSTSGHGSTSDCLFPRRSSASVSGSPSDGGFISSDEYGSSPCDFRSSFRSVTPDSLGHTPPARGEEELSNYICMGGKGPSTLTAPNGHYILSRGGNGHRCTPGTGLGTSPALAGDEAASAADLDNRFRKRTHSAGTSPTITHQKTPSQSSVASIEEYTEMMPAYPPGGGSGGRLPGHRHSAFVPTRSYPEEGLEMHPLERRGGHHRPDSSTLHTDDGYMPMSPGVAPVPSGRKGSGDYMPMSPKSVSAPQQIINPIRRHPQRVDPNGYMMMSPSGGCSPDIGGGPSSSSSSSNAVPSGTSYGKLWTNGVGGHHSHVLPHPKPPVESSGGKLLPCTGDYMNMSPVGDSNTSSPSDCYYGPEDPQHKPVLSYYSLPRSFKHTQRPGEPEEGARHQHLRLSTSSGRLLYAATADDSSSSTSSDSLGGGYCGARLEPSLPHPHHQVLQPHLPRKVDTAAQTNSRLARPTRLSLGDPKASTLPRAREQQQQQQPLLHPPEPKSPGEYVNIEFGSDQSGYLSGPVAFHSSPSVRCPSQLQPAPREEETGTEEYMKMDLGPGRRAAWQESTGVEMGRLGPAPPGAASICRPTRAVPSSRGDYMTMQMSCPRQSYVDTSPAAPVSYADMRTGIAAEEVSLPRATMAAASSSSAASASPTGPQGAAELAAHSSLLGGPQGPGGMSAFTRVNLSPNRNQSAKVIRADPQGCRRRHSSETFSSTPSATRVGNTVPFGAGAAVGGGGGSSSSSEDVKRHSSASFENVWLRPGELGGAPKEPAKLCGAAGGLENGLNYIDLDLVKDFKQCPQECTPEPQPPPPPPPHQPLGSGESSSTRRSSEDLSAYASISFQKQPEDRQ

Experiments:
[1] = biological target: T1, Flag-tagged USP18 (ubiquitin-specific protease 18), full length (human) (UniProt Q9UMW8); experiment: co-IP; cells transfected with the Flag-tagged bait only (293T for Figures 1C and 1D; cell line not named for Figures 2C, 2E, 2F, 3C); anti-Flag M2 affinity gel; immunoblot for the endogenous partner
T1 sequence: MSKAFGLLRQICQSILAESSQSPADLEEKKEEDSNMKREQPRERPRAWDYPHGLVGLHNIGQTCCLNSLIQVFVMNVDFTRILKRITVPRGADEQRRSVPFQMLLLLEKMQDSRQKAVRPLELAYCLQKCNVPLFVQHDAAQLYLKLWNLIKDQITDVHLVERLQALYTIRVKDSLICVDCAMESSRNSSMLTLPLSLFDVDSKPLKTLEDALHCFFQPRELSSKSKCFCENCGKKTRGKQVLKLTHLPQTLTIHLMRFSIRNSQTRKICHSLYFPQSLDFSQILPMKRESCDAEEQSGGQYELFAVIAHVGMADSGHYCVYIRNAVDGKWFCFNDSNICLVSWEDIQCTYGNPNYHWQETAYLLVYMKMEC

[2] = biological target: T1, Flag-tagged USP18 (ubiquitin-specific protease 18), full length (human); experiment: co-IP; 293T cells co-transfected with both tagged partners; RIPA lysate on anti-Flag M2 affinity gel; immunoblot with anti-Myc or anti-GFP and anti-Flag

## endogenous IRS1 (from UniProt P35568 1-1242)
[1]
  binding: no binding

B1: Myc-tagged IRS4 (1-400) (domain or fragment, UniProt O14654 1-400)
chain: MASCSFTRDQATRRLRGAAAAAAAALAAVVTTPLLSSGTPTALIGTGSSCPGAMWLSTATGSRSDSESEEEDLPVGEEVCKRGYLRKQKHGHRRYFVLKLETADAPARLEYYENARKFRHSVRAAAAAAAAAASGAAIPPLIPPRRVITLYQCFSVSQRADARYRHLIALFTQDEYFAMVAENESEQESWYLLLSRLILESKRRRCGTLGAQPDGEPAALAAAAAAEPPFYKDVWQVIVKPRGLGHRKELSGVFRLCLTDEEVVFVRLNTEVASVVVQLLSIRRCGHSEQYFFLEVGRSTVIGPGELWMQVDDCVVAQNMHELFLEKMRALCADEYRARCRSYSISIGAHLLTLLSARRHLGLVPLEPGGWLRRSRFEQFCHLRAIGDGEDEMLFTRRFV
[2]
  binding: binds

B2: YFP-tagged IRS4 (401-1257) (domain or fragment, UniProt O14654 401-1257)
chain: TPSEPVAHSRRGRLHLPRGRRSRRAVSVPASFFRRLAPSPARPRHPAEAPNNGARLSSEVSGSGSGNFGEEGNPQGKEDQEGSGGDYMPMNNWGSGNGRGSGGGQGSNGQGSSSHSSGGNQCSGEGQGSRGGQGSNGQGSGGNQCSRDGQGTAGGHGSGGGQRPGGGHGSGGGQGPGDGHGSGGGKNSGGGKGSGSGKGSDGDGERGKSLKKRSYFGKLTQSKQQQMPPPPPPPPPPPPAGGTGGKGKSGGRFRLYFCVDRGATKECKEAKEVKDAEIPEGAARGPHRARAFDEDEDDPYVPMRPGVATPLVSSSDYMPMAPQNVSASKKRHSRSPFEDSRGYMMMFPRVSPPPAPSPPKAPDTNKEDDSKDNDSESDYMFMAPGAGAIPKNPRNPQGGSSSKSWSSYFSLPNPFRSSPLGQNDNSEYVPMLPGKFLGRGLDKEVSYNWDPKDAASKPSGEGSFSKPGDGGSPSKPSDHEPPKNKAKRPNRLSFITKGYKIKPKPQKPTHEQREADSSSDYVNMDFTKRESNTPAPSTQGLPDSWGIIAEPRQSAFSNYVNVEFGVPFPNPANDLSDLLRAIPRANPLSLDSARWPLPPLPLSATGSNAIEEEGDYIEVIFNSAMTPAMALADSAIRYDAETGRIYVVDPFSECCMDISLSPSRCSEPPPVARLLQEEEQERRRPQSRSQSFFAAARAAVSAFPTDSLERDLSPSSAPAVASAAEPTLALSQVVAAASALAAAPGIGAAAAAAGFDSASARWFQPVANAADAEAVRGAQDVAGGSNPGAHNPSANLARGDNQAGGAAAAAAAPEPPPRSRRVPRPPEREDSDNDDDTHVRMDFARRDNQFDSPKRGR
[2]
  binding: binds

B3: YFP-tagged IRS4 (1-334) (domain or fragment, UniProt O14654 1-334)
chain: MASCSFTRDQATRRLRGAAAAAAAALAAVVTTPLLSSGTPTALIGTGSSCPGAMWLSTATGSRSDSESEEEDLPVGEEVCKRGYLRKQKHGHRRYFVLKLETADAPARLEYYENARKFRHSVRAAAAAAAAAASGAAIPPLIPPRRVITLYQCFSVSQRADARYRHLIALFTQDEYFAMVAENESEQESWYLLLSRLILESKRRRCGTLGAQPDGEPAALAAAAAAEPPFYKDVWQVIVKPRGLGHRKELSGVFRLCLTDEEVVFVRLNTEVASVVVQLLSIRRCGHSEQYFFLEVGRSTVIGPGELWMQVDDCVVAQNMHELFLEKMRALCAD
[2]
  binding: no binding

B4: endogenous IRS2 (protein, UniProt Q9Y4H2 1-1338)
chain: MASPPRHGPPGPASGDGPNLNNNNNNNNHSVRKCGYLRKQKHGHKRFFVLRGPGAGGDEATAGGGSAPQPPRLEYYESEKKWRSKAGAPKRVIALDCCLNINKRADAKHKYLIALYTKDEYFAVAAENEQEQEGWYRALTDLVSEGRAAAGDAPPAAAPAASCSASLPGALGGSAGAAGAEDSYGLVAPATAAYREVWQVNLKPKGLGQSKNLTGVYRLCLSARTIGFVKLNCEQPSVTLQLMNIRRCGHSDSFFFIEVGRSAVTGPGELWMQADDSVVAQNIHETILEAMKALKELFEFRPRSKSQSSGSSATHPISVPGARRHHHLVNLPPSQTGLVRRSRTDSLAATPPAAKCSSCRVRTASEGDGGAAAGAAAAGARPVSVAGSPLSPGPVRAPLSRSHTLSGGCGGRGSKVALLPAGGALQHSRSMSMPVAHSPPAATSPGSLSSSSGHGSGSYPPPPGPHPPLPHPLHHGPGQRPSSGSASASGSPSDPGFMSLDEYGSSPGDLRAFCSHRSNTPESIAETPPARDGGGGGEFYGYMTMDRPLSHCGRSYRRVSGDAAQDLDRGLRKRTYSLTTPARQRPVPQPSSASLDEYTLMRATFSGSAGRLCPSCPASSPKVAYHPYPEDYGDIEIGSHRSSSSNLGADDGYMPMTPGAALAGSGSGSCRSDDYMPMSPASVSAPKQILQPRAAAAAAAAVPSAGPAGPAPTSAAGRTFPASGGGYKASSPAESSPEDSGYMRMWCGSKLSMEHADGKLLPNGDYLNVSPSDAVTTGTPPDFFSAALHPGGEPLRGVPGCCYSSLPRSYKAPYTCGGDSDQYVLMSSPVGRILEEERLEPQATPGPSQAASAFGAGPTQPPHPVVPSPVRPSGGRPEGFLGQRGRAVRPTRLSLEGLPSLPSMHEYPLPPEPKSPGEYINIDFGEPGARLSPPAPPLLASAASSSSLLSASSPASSLGSGTPGTSSDSRQRSPLSDYMNLDFSSPKSPKPGAPSGHPVGSLDGLLSPEASSPYPPLPPRPSASPSSSLQPPPPPPAPGELYRLPPASAVATAQGPGAASSLSSDTGDNGDYTEMAFGVAATPPQPIAAPPKPEAARVASPTSGVKRLSLMEQVSGVEAFLQASQPPDPHRGAKVIRADPQGGRRRHSSETFSSTTTVTPVSPSFAHNPKRHNSASVENVSLRKSSEGGVGVGPGGGDEPPTSPRQLQPAPPLAPQGRPWTPGQPGGLVGCPGSGGSPMRRETSAGFQNGLNYIAIDVREEPGLPPQPQPPPPPLPQPGDKSSWGRTRSLGGLISAVGVGSTGGGCGGPGPGALPPANTYASIDFLSHHLKEATIVKE
[1]
  binding: no binding
